The record followed here is the supplement of paper PMC11417369.

This is one part of the list.

The test system of this assay is PfAP2-HC AP2 domain (GST-tagged). The experiment in a line: gcPBM binding intensity (ln(normalized median fluorescence intensity)); higher = stronger DNA binding. In outline:
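An Agilent 4 × 180k array of primer-extended double-stranded 36-bp intergenic genomic probes, with negative controls, was incubated for 1 h with GST-tagged P. falciparum DNA-binding domains expressed in E. coli. Alexa488 anti-GST antibody detected bound protein, scanned at 488 nm. Binding intensity is the highest Masliner-normalised natural-log median intensity across replicate spots of either probe orientation.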
Consider “ACGTTATACACAGTACGTACATAACTATCTAAATGT [XGTACX_site5068]”, for which the “gcPBM binding intensity (ln)” value stood at 9.88.

As to “TTTTTTTTTTTTTTTTTTTTTTTTTTGTTCAGGCCT [GTGCAC_negctrl_site143]”, the “gcPBM binding intensity (ln)” value is 8.84.

As for “ACGTAATAAAATAGTTGTACAACTTTTTATAATATA [XGTACX_site4393]”, the “gcPBM binding intensity (ln)” value was 9.63.

For “TCATAAATATGAAAAAGTACAAAGGTAGATTTTGAA [XGTACX_site4535]”, the “gcPBM binding intensity (ln)” value amounted to 9.71.

Take “TATATATATATTATATGTACGTATGTATGTATATAT [XGTACX_site6451]”: the “gcPBM binding intensity (ln)” value was 9.69.

As for “AAACGATTAATGTGTACACACATAGTTATAAACCTA [CACACA_site2110]”, the “gcPBM binding intensity (ln)” value is 10.

For ACAAAGTTATAATTCTTGCACTTTAAGGTTCATTTA, the “gcPBM binding intensity (ln)” value is 9.61.

In the case of “CGTGAATATATGATATGTACTTATAAAAATTTGTGC [XGTACX_site5480]”, the “gcPBM binding intensity (ln)” value was 9.55.

Take “ATAAATATCTAGGGTTCACACATTATATATCTGTAT [CACACA_site5702]”: the “gcPBM binding intensity (ln)” value turned out to be 9.75.

For “GGTATACACAAGTATACACACATATATATATATATA [CACACA_site9063]”, the “gcPBM binding intensity (ln)” value turned out to be 9.84.

As for “TTTTCCTCTTAAAATATACACACTGATTTAAGAAAA [CACACA_site3301]”, the “gcPBM binding intensity (ln)” value was 9.29.

“TTCATTTTTTGCTTTCAACACACATACAATATATAT [CACACA_site9369]”: the “gcPBM binding intensity (ln)” value stood at 10.

“AGTAACAAAAGAAAAAAATATGCAAACATATATATA [XGTACX_negctrl_site468]”: the “gcPBM binding intensity (ln)” value is 9.65.

Regarding “AGAAATATATATATATATATATATATATATATATAT [TGCATGCA_negctrl_site375]”, the “gcPBM binding intensity (ln)” value is 10.2.

On to “TTTTTCTTTTTTTCTTTTTTTATAAAACTTAATTGT [CACACA_negctrl_site384]”, for which the “gcPBM binding intensity (ln)” value came to 9.55.

As to “AAAAAAAAAAAAAAATATATATATATATACATACAT [CACACA_negctrl_site317]”, the “gcPBM binding intensity (ln)” value is 9.67.

For “TATTAATTATATTTATGTACATAATCATATTATTAT [XGTACX_site7938]”, the “gcPBM binding intensity (ln)” value was determined as 9.94.

For the sequence “GGACACCTTCAAAACACACATACAAATAAATAGAAA [CACACA_site3305]”, the “gcPBM binding intensity (ln)” value was 9.71.

As to “ATATAAATATATATATGTACATAATATATTATGTTT [XGTACX_site2806]”, the “gcPBM binding intensity (ln)” value stood at 9.71.

Regarding “AATTTAACCACTAAAAGTACACACATATATACATAT [XGTACX_site8352]”, the “gcPBM binding intensity (ln)” value is 10.1.

“TCCTTTTTACTACTAGTGCATTATTTACAAGGTCCG [GTGCAC_site9441]”: the “gcPBM binding intensity (ln)” value was determined as 9.47.

Consider “TAGTTTTTTATATATTGTACTTAGAATATATTATAT [XGTACX_site3662]”, for which the “gcPBM binding intensity (ln)” value was 9.62.

Take “ATATATATAAAATATTATATTAAAAAAAATAAAATA [GTGCAC_negctrl_site87]”: the “gcPBM binding intensity (ln)” value is 9.59.

On to “AGGATAATATACAAAAGTACATAAAACTAAAAAAAC [XGTACX_site605]”, for which the “gcPBM binding intensity (ln)” value was 9.88.
